In PubChem BioAssay AID662 (National Center for Advancing Translational Sciences (NCATS), 2007):
“And” between values parts separate entries of the source, which are not always exact repeats. Equal entries are not always repeated. In all, about 71,000 compounds went through this assay and about 1,800 (2.5%) were called active. The inconclusive results got no clear call from the source; some entries with a clear call stand among them for comparison. Calls come from the whole dose curve; as a rule, active = well fitted activation curve with a large enough effect in the signal ratio, with a control signal flat (not every such curve was filed as active); inconclusive = small, poorly fitted or top-dose-only effect, or effect the other way, or a change in a side signal; inactive = flat fitted curve, though single readings scatter; the % refers to the signal ratio. Where the call is inconclusive, the potency comes from a doubtful curve fit.

Experiment: Cell signaling CRE-BLA (Fsk stim); for activity change, negative = inhibition: % of control where 0% means no effect
Conditions: CHO CRE-bla reporter (cAMP response element driving beta-lactamase), forskolin EC10, beta-lactamase ratio
Source text: NIH Molecular Libraries Screening Centers Network [MLSCN]
NIH Chemical Genomics Center [NCGC]
Assay Provider: Marshall W. Nirenberg, U.S. National heart lung & blood institute
Memories persist for different lengths of time, from seconds or minutes to a lifetime. There are two kinds of memory: short-term memory (STM) and long-term memory (LTM). STM lasts for minutes to hours, which maybe mediated by modifications of molecules involved in synaptic functions. LTM lasts for days or longer, and may be due to the formation of new synapses or restructuring of existing synapses. LTM, but not STM, requires gene transcription and synthesis of proteins. CREB (cyclic-AMP Responsive Element Binding Protein) is one of the candidates plays an important role for enhancement of some types of LTM. CREB, a family of transcription factors, regulates the transcription of genes containing cAMP Responsive Elements (CRE). CRE is a nucleotide sequence often found in the promoter regions of genes that are binding sites for CREB.
Using a beta-lactamase reporter-gene under control of cAMP responsive element, a cell-based assay [CellSensor(TM) CRE-bla CHO developed by Invitrogen Corp.] was used to measure forskolin-induced signaling. Library compounds were measured for their ability to modulate positively or negatively the action of EC10 NKH 477, a water soluble forskolin, on reporter gene activity. Compounds were screened in a titration series in 1536-well format. Positive and negative modulators were identified based on the AC50 values derived from the screening data.
NCGC Assay Protocol Summary
2000 cells/5uL in Opti-MEM medium containing 0.5% dialyzed FBS, 0.1 mM NEAA, 1 mM sodium pyruvate and 10 mM HEPES was dispensed into 1536-well plates and cells were cultured at 37 degrees Celsius overnight. […] And then the plates were incubated at 37 degrees Celsius for 3 hours. 1 uL of CCF4-dye mixture was added to each well. After incubated at room temperature for 2 hours the plates were measured on an EnVision plate reader at Excitation 405nm, Emission1=460nm and Emission 2=530nm. The %Activity was determined from the ratio of 460nm/530nm.
Keywords: NIH Roadmap, MLSCN, MLSMR, qHTS, NCGC, CRE, beta-lactamase reporter-gene assay.

[1] = activity change, negative = inhibition: at 38.2 µM (top of the series) unless noted
Potency is the fitted concentration of half-maximal effect; tags give direction and shape of the fitted curve.

NNC(N)=O
activity change, negative = inhibition [1]: inconclusive: -5.89%

O=c1c2ccccc2nc(CSc2ncnc3nc[nH]c23)n1-c1ccccc1
activity change, negative = inhibition [1]: inconclusive: 22.1%

CCOc1cccc(C2NCc3ccccc3-n3cccc32)c1O (centres undefined)
activity change, negative = inhibition [1]: inconclusive: -13.2%

COc1ccc2c(c1)c(C(=O)CN1CCN(C)CC1)c(C)n2Cc1ccccc1
activity change, negative = inhibition [1]: inactive

COCCCn1c(N)c(C(=O)OC(C)COC)c2nc3ccccc3nc21 (centres undefined)
Potency [1]: inconclusive: 12.6 µM [rising, partial curve]

NCCc1ccc(O)cc1
activity change, negative = inhibition [1]: inconclusive: -4.83%
activity change, negative = inhibition (at 38.2 µM (top of the series)): inactive: -1.81% and inactive: -14.1%

CCCS(=O)(=O)N1CCC(C(=O)N2CCC3(CC2)OCCO3)CC1
activity change, negative = inhibition [1]: inconclusive: 2.85%

Cc1nn(-c2ccccc2)c2c1CC1(C(=O)N(C)C(=O)N(C)C1=O)C1CCCCN21 (centres undefined)
activity change, negative = inhibition [1]: inactive

CCCNC(=O)c1c(N)n(Cc2ccc3c(c2)OCO3)c2nc3ccccc3nc12
Potency [1]: inconclusive: 0.398 µM [rising, full curve]

O=c1ccc2cc(O[C@@H]3O[C@@H](CO)[C@@H](O)[C@@H](O)[C@H]3O)c(O)cc2o1
Potency [1]: inconclusive: 12.6 µM [rising, partial curve]

C[N+](=O)[O-]
activity change, negative = inhibition [1]: inactive

C[C@@]12CC[C@H]3[C@@H](CC[C@@H]4C[C@H]5S[C@H]5C[C@]43C)[C@H]1CC[C@H]2O
activity change, negative = inhibition [1]: inactive

Nc1c(C(=O)NC2CCCC2)c2nc3ccccc3nc2n1CC1CCCO1 (centres undefined)
Potency [1]: inconclusive: 10 µM [rising, partial curve]

CCC(=NCc1ccco1)c1c(O)n(-c2ccc(OC)cc2)c(=O)[nH]c1=O
activity change, negative = inhibition [1]: inconclusive: 24.3%

CCNCC
activity change, negative = inhibition [1]: inactive

CCCCn1c(O)c(C(C)=NCc2ccc(F)cc2)c(=O)[nH]c1=O
Potency [1]: inconclusive: 12.6 µM [rising, partial curve]

Cc1c([C@@H](C)[C@H]2NC[C@H](C)C[C@@H]2O)ccc2c1C[C@@H]1[C@H]2CC=C2C[C@@H](O)CC[C@@]21C
activity change, negative = inhibition [1]: inactive: -8.1% [at 7.6 µM]

CCOC(=O)C(O)(c1ccc(N)c(OC)c1)C(F)(F)F (centres undefined)
activity change, negative = inhibition [1]: inconclusive: 2.57%

CCCN1CCO[C@@H]2c3cc(O)ccc3OC[C@@H]21
activity change, negative = inhibition [1]: inactive

CCOC(=O)C1SC2(C(F)F)CC1(O)c1c(c(OC)c3occc3c1OC)O2 (centres undefined)
activity change, negative = inhibition [1]: inactive

CN1C(=O)C(Cc2c[nH]c3ccccc23)C(=O)N(C)C1=O
activity change, negative = inhibition [1]: inconclusive: -25.8%

CCC(C)(C)c1ccc(O)cc1
Potency [1]: inconclusive: 15.8 µM [rising, single point]

COc1ccc2c3c([nH]c2c1)C(C)=NCC3
Potency [1]: inconclusive: 12.6 µM [rising, partial curve]
activity change, negative = inhibition [1]: inconclusive: 25.5% [fluorescent] [at 17.1 µM]

Cc1ccc2cc3cc(C(=O)N4CCC5(CC4)OCCO5)oc3nc2c1
activity change, negative = inhibition [1]: inactive

Cn1c2ccccc2c2c(C(=O)N3CCC4(CC3)OCCO4)cn(C3CCCC3)c(=O)c21
Potency [1]: inconclusive: 10 µM [rising, partial curve]

CCOC(=O)C1C2NC(=O)N(Cc3ccccc3)C1(C)Oc1c(OC)cccc12 (centres undefined)
activity change, negative = inhibition [1]: inconclusive: -17%

C[C@@H](N)Cn1ccc2cc(F)c(Cl)cc21
activity change, negative = inhibition [1]: inconclusive: -23.9%

C#CCN1C(C)=C(C(=O)CCO)[C@@H](c2cccc(-n3oo3)c2)C(C(=O)OC)=C1C
activity change, negative = inhibition [1]: inconclusive: 5.33%

CC[C@H]1CN2CC[C@@H]1C[C@@H]2[C@H](O)c1ccnc2ccccc12
activity change, negative = inhibition [1]: inconclusive: -14.8%

NCCCP(=O)(O)CC1CCCCC1
activity change, negative = inhibition [1]: inactive

COC(=O)[C@@]1(Cc2ccccc2)[C@H]2c3cc(C(=O)N(C)C)n(C)c3C[C@H]2CN1C(=O)c1ccccc1
activity change, negative = inhibition [1]: inactive

C=CCn1c(O)c(C(C)=Nc2ccc(N(C)C)cc2)c(=O)[nH]c1=O
Potency [1]: inconclusive: 20 µM [rising, single point]

CC(C)(Cc1c[nH]c2ccc(Cl)cc12)NCCOc1ccccc1OCC1CC1
Potency [1]: inconclusive: 10 µM [falling, partial curve]

Cc1ccc(C[N+](C)(C)C)o1
activity change, negative = inhibition [1]: inconclusive: -17.5%

C=C(C)[C@H]1[C@H]2OC(=O)[C@@H]1[C@]1(O)C[C@H]3O[C@]34C(=O)O[C@H]2[C@]14C
activity change, negative = inhibition [1]: inactive

BrCC(Br)C1CCC(Br)C(Br)C1 (centres undefined)
Potency [1]: inconclusive: 15.8 µM [rising, partial curve]

C(=NCCN1CCOCC1)=NC1CCCCC1
activity change, negative = inhibition [1]: inactive: 2.45% [at 7.6 µM]

CCN1CCC2(CCNC2)C1 (centres undefined)
Potency [1]: inconclusive: 12.6 µM [rising, partial curve]

C=CP(=O)(O)c1ccccc1
activity change, negative = inhibition [1]: inconclusive: -14.6% [at 7.6 µM]

C[C@@]12CC[C@H]3[C@@H](CCC4=CC(=O)CC[C@]43C)[C@H]1CCC2=O
activity change, negative = inhibition [1]: inactive

CC1(C)N(O)C2CCCCC2N1O (centres undefined)
activity change, negative = inhibition [1]: inactive

COc1ccccc1N1CCN(Cc2ccc(Br)s2)CC1
Potency [1]: inconclusive: 0.00398 µM [falling, full curve, poor fit]

CC(=O)NNc1ccccc1
activity change, negative = inhibition [1]: inactive

c1ccc2c(c1)[I+]c1ccccc1-2
Potency [1]: inconclusive: 0.631 µM [rising, full curve]

COC(=O)c1ccc(COc2cc(C)cc3oc(=O)c4c(c23)CCCC4)o1
Potency [1]: inconclusive: 3.16 µM [rising, partial curve]

N#Cc1cc2c(nc1SCC(=O)Nc1ccc(Cl)cc1)C1CCN2CC1
Potency [1]: inconclusive: 10 µM [rising, single point]

O=S(=O)(O)c1cc(O)ccc1O
activity change, negative = inhibition [1]: inactive

COc1ccc2c(c[n+](C)c3c4cc5c(cc4ccc23)OCO5)c1OC
activity change, negative = inhibition [1]: inconclusive: 23.9%

CCc1cccc(CC)c1N(COC)C(=O)CCl
activity change, negative = inhibition [1]: inconclusive: -19.9%

CCCCn1c(O)c(C=NC2CC3CCC2(C)C3(C)C)c(=O)[nH]c1=O (centres undefined)
Potency [1]: active: 12.6 µM

COc1ccc(CN2CCN(c3ccccc3F)CC2)c(OC)c1
activity change, negative = inhibition [1]: inconclusive: 25.9% [at 7.6 µM]

CCC(=O)c1c(O)n(C2CCCCCC2)c(=O)[nH]c1=O
activity change, negative = inhibition [1]: inconclusive: -3.74%

CC(=O)O[C@H]1CC[C@H]2[C@@H]3CCC4=C[C@@H](C5SCCS5)[C@H](OC(C)=O)C[C@]4(C)[C@H]3CC[C@@]12C
activity change, negative = inhibition [1]: inactive: 9.81% [at 7.6 µM]

C[C@H](CN(C)C)C(C#N)(c1ccccc1)c1ccccc1
activity change, negative = inhibition [1]: inactive: 5.05% [at 7.6 µM]

COc1cc(OC)c(OC)cc1CNCCc1ccc(OC)c(OC)c1
Potency [1]: inconclusive: 0.398 µM [falling, full curve, poor fit]

COc1ccc2c(c1OC)C(=O)OC2c1c(O)n(Cc2ccc(F)cc2)c(=O)[nH]c1=O (centres undefined)
activity change, negative = inhibition [1]: inconclusive: 0%

COC(=O)CN1CN(c2ccccc2)C2(CCN(Cc3ccc4ccccc4c3)CC2)C1=O
activity change, negative = inhibition [1]: inconclusive: -24.2%

COC(=O)c1ccccc1-n1c(C)nc2ccccc2c1=O
activity change, negative = inhibition [1]: inactive

O=S(=O)(c1ccc(Cl)cc1)c1ccc(Cl)cc1
activity change, negative = inhibition [1]: inactive

CC(C)C[C@H]1C(=O)N2CCC[C@@H]2[C@]2(O)O[C@](NC(=O)[C@H]3C=C4c5cccc6[nH]cc(c56)C[C@H]4N(C)C3)(C(C)C)C(=O)N12
activity change, negative = inhibition [1]: inconclusive: 12.7%

CC(C)(Cl)Cl
activity change, negative = inhibition [1]: inactive

CN(C)CCC(C#N)(c1ccccc1)c1ccccc1
activity change, negative = inhibition [1]: inactive: 5.91% [at 7.6 µM]

Cn1c(C(=O)N2CCC3(CC2)OCCO3)cc2c(=O)n(C)c3ccccc3c21
Potency [1]: inconclusive: 12.6 µM [rising, single point]

COc1ccc(C[C@H]2NC[C@H](O)[C@@H]2OC(C)=O)cc1
Potency [1]: inconclusive: 3.16 µM [falling, full curve, poor fit]

O=C(O)/C=C\CO
activity change, negative = inhibition [1]: inactive

COc1ccc(C(=O)c2c(C)n(CCN3CCOCC3)c3cc(I)ccc23)cc1
activity change, negative = inhibition [1]: inconclusive: -29.5%

CCOC(=O)C1C(=O)N(C)C2(C)CC1c1cc(OC)ccc1O2 (centres undefined)
activity change, negative = inhibition [1]: inconclusive: 11%

O=c1[nH]c(=O)n(Cc2ccc(F)cc2)c(O)c1C=NCCN1CCCCC1
activity change, negative = inhibition [1]: inconclusive: 0.529%

CC(C)(C)NC[C@H](O)c1ccccc1Cl
activity change, negative = inhibition [1]: inactive

CCCCNC(=O)n1c(NC(=O)OC)nc2ccccc21
activity change, negative = inhibition [1]: inactive

Cc1ccc(S(=O)(=O)N2CN3CCN(C3)C2)cc1
Potency [1]: inconclusive: 0.398 µM [falling, partial curve]

O=C1C2CCN(CC2)C1Cc1ccc(OCCOc2ccccc2)cc1 (centres undefined)
activity change, negative = inhibition [1]: inconclusive: -6.38%

C=CCn1c(O)c(C(CC)=Nc2ccc(N(CC)CC)cc2)c(=O)[nH]c1=O
Potency [1]: inconclusive: 5.01 µM [rising, full curve]

Cc1ccc(S(=O)ON2CCC(C(=O)O)(c3ccccc3)CC2)cc1 (centres undefined)
activity change, negative = inhibition [1]: inactive: 1.71% [at 7.6 µM]

O=C(Cc1ccccc1)N1CCN(C2CCCC2)CC1
Potency [1]: inconclusive: 0.0631 µM [rising, full curve]

CCOC(=O)c1c(C)n(Cc2ccco2)c2ccc(OC)cc12
Potency [1]: inconclusive: 12.6 µM [rising, partial curve]

CC[C@@]1(O)C(=O)OCc2c1cc1n(c2=O)Cc2cc3c(NC(=O)CN)cccc3nc2-1
activity change, negative = inhibition [1]: inactive: 16.3% [at 7.6 µM]

CCN1CCN(c2ncnc3ccc(Br)cc23)CC1
activity change, negative = inhibition [1]: inconclusive: -18.6%

Fc1ccc2c(c1)nnn2C1CCN(Cc2nnnn2C2CCCCC2)CC1
activity change, negative = inhibition [1]: inconclusive: 7%

C[C@]12CC[C@H](O)C[C@@H]1CC[C@H]1[C@H]2CC[C@]2(C)[C@H](C(=O)CO)CC[C@@H]12
Potency [1]: inconclusive: 12.6 µM [rising, single point]

O=C(O)Cc1ccc([N+](=O)[O-])cc1[N+](=O)[O-]
activity change, negative = inhibition [1]: inactive: -12.9% [at 7.6 µM]

C=CCn1c(O)c(C(C)=Nc2ccc(C(=O)OCC)cc2)c(=O)[nH]c1=O
activity change, negative = inhibition [1]: inconclusive: 17.2%
